The densities may have been worked out from excess volumes.
Assay: xn = mol fraction of the nth substance listed
Conditions: 101 kPa

CCCC[n+]1ccn(C)c1.N#C[S-] + CCCCO
mass density [kg/m3]
Conditions | 298.15 K | 308.15 K | 318.15 K | 328.15 K | 338.15 K | 348.15 K
x2 = 0 | 1069.8 | 1063.9 | 1058 | 1052.2 | 1046.4 | 1040.7
x2 = 0.0911 | 1058.5 | 1052.6 | – | 1040.8 | 1035 | 1029.2
x2 = 0.2242 | – | 1033.9 | 1027.9 | 1022 | 1016.1 | 1010.2
x2 = 0.3317 | 1022 | 1015.8 | 1009.7 | 1003.7 | 997.7 | –
x2 = 0.4552 | 997.7 | 991.4 | 985.2 | – | 972.8 | 966.7
x2 = 0.5596 | – | 967.1 | – | 954.4 | – | 941.7
x2 = 0.6222 | – | 950.5 | – | 937.5 | – | 924.6
x2 = 0.6834 | 939.2 | – | – | – | 912.6 | 905.9
x2 = 0.79 | – | 896.5 | 889.5 | 882.6 | 875.6 | 868.6
x2 = 0.8487 | 880.2 | 873.1 | 866 | 858.8 | 851.6 | 844.3
x2 = 0.8975 | 858.8 | 851.6 | 844.3 | 836.9 | 829.4 | –
x2 = 0.9738 | – | 813.3 | – | 797.8 | 789.8 | –

CCCC[n+]1ccn(C)c1.N#C[S-] + CCCCCCO
mass density [kg/m3]
Conditions | 298.15 K | 308.15 K | 318.15 K | 328.15 K | 338.15 K | 348.15 K
x2 = 0 | 1069.8 | 1063.9 | 1058 | 1052.2 | 1046.4 | 1040.7
x2 = 0.0424 | 1063 | 1057.1 | 1051.2 | 1045.4 | – | –
x2 = 0.1505 | – | – | 1032.5 | 1026.6 | 1020.8 | 1015
x2 = 0.3093 | 1013.1 | 1007 | 1000.9 | 994.9 | – | 983.1
x2 = 0.453 | 981.2 | – | 968.8 | 962.7 | – | 950.4
x2 = 0.5773 | 950.4 | 944.1 | 937.7 | 931.4 | – | 918.7
x2 = 0.6307 | 936.2 | 929.7 | – | 916.9 | 910.4 | 904
x2 = 0.6962 | 917.7 | 911.2 | 904.6 | – | 891.5 | 884.9
x2 = 0.7583 | 899.2 | 892.5 | 885.9 | – | 872.4 | 865.7
x2 = 0.8512 | 869.5 | 862.7 | 855.8 | – | 841.9 | 834.9
x2 = 0.9102 | 849 | – | – | 828 | 820.8 | 813.4

CCCCO + CCCC[n+]1ccn(C)c1.N#C[S-]
x1 = 1
Conditions | mass density [kg/m3]
298.15 K | 805.8
308.15 K | 798.1
318.15 K | 790.2
338.15 K | 773.9

CCCCCO + CCCC[n+]1ccn(C)c1.N#C[S-]
x1 = 1
Conditions | mass density [kg/m3]
308.15 K | 803.5
318.15 K | 796
328.15 K | 788.3
338.15 K | 780.4
348.15 K | 772.2

CCCCCCO + CCCC[n+]1ccn(C)c1.N#C[S-]
x1 = 1
Conditions | mass density [kg/m3]
298.15 K | 814.9
318.15 K | 800.4
328.15 K | 792.9
348.15 K | 777.4

CCCC[n+]1ccn(C)c1.N#C[S-] + CCCCCO
mass density [kg/m3]
Conditions | 298.15 K | 308.15 K | 318.15 K | 328.15 K | 338.15 K | 348.15 K
x2 = 0 | 1069.8 | 1063.9 | 1058 | 1052.2 | – | 1040.7
x2 = 0.0193 | 1067.1 | – | 1055.4 | 1049.5 | 1043.7 | 1038
x2 = 0.1443 | 1048.5 | – | 1036.5 | 1030.6 | 1024.8 | 1019
x2 = 0.2751 | 1026 | 1019.9 | 1013.9 | 1007.9 | 1002 | –
x2 = 0.3843 | 1004.4 | 998.2 | 992.1 | 986 | – | –
x2 = 0.487 | 981.6 | 975.3 | 969.1 | 962.8 | 956.7 | 950.5
x2 = 0.5557 | 964.7 | 958.4 | – | 945.7 | 939.4 | 933.1
x2 = 0.616 | 948.7 | 942.2 | 935.8 | 929.4 | – | 916.6
x2 = 0.7302 | 915.1 | 908.4 | 901.8 | – | 888.4 | 881.7
x2 = 0.7914 | 895 | 888.2 | 881.4 | 874.6 | 867.7 | –
x2 = 0.856 | 871.8 | 864.8 | 857.8 | 850.8 | 843.7 | 836.5
x2 = 0.9135 | 849.3 | 842.2 | 835.1 | 827.8 | 820.5 | –

Reference: a compilation of properties of binary mixtures (doi:10.1007/s10953-009-9410-7)
